Measurements from the supplement of paper PMC4996465.
Viability of KB3-1 and Nalm-6 cells after 48 h of drug alone (CellTiter-Glo), 11 doses over about 4.5 log units. % of DMSO wells, lower = more cell loss; AC50 from the fitted curve, lower = more potent. No active / inactive call. Nalm-6 was screened in two runs. AC50 is listed only for well-fitted inhibitory curves. KB3-1 is a HeLa-derived carcinoma line, Nalm-6 a B-cell precursor leukaemia line.

Tests used:
KB3-1 [1] = experiment: log AC50 of viability decrease (48 h) (log10 M); higher = less potent
Procedure: (§1)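 Eleven-dose screen of the NCATS MIPE 3 library on cells without co-treatment; CellTiter-Glo after 48 h. AC50 from the curve fit; only inhibitory curves of the better fit classes are listed.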

Nalm-6 [2] = experiment: as above
Procedure: as §1

KB3-1 [3] = experiment: viability (% of DMSO control); higher = more viable cells
Procedure: (§2)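 Eleven-dose screen of the NCATS MIPE 3 library on cells without co-treatment; CellTiter-Glo after 48 h, as % of DMSO wells.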

Nalm-6 [4] = experiment: as above
Procedure: as §2

Row | Compound | log AC50 of viability decrease (KB3-1 [1]) | log AC50 of viability decrease (Nalm-6 [2]; run: 1) | log AC50 of viability decrease (Nalm-6 [2]; run: 2) | viability (KB3-1 [3]; 0.00078 µM) [%] | viability (KB3-1 [3]; 0.00234 µM) [%] | viability (KB3-1 [3]; 0.00702 µM) [%] | viability (KB3-1 [3]; 0.0211 µM) [%] | viability (KB3-1 [3]; 0.0632 µM) [%] | viability (KB3-1 [3]; 0.19 µM) [%] | viability (KB3-1 [3]; 0.569 µM) [%] | viability (KB3-1 [3]; 1.71 µM) [%] | viability (KB3-1 [3]; 5.12 µM) [%] | viability (KB3-1 [3]; 15.4 µM) [%] | viability (KB3-1 [3]; 46.1 µM) [%] | viability (Nalm-6 [4]; run: 1, 0.00078 µM) [%] | viability (Nalm-6 [4]; run: 1, 0.00234 µM) [%] | viability (Nalm-6 [4]; run: 1, 0.00702 µM) [%] | viability (Nalm-6 [4]; run: 1, 0.0211 µM) [%] | viability (Nalm-6 [4]; run: 1, 0.0632 µM) [%] | viability (Nalm-6 [4]; run: 1, 0.19 µM) [%] | viability (Nalm-6 [4]; run: 1, 0.569 µM) [%] | viability (Nalm-6 [4]; run: 1, 1.71 µM) [%] | viability (Nalm-6 [4]; run: 1, 5.12 µM) [%] | viability (Nalm-6 [4]; run: 1, 15.4 µM) [%] | viability (Nalm-6 [4]; run: 1, 46.1 µM) [%] | viability (Nalm-6 [4]; run: 2, 0.00078 µM) [%] | viability (Nalm-6 [4]; run: 2, 0.00234 µM) [%] | viability (Nalm-6 [4]; run: 2, 0.00702 µM) [%] | viability (Nalm-6 [4]; run: 2, 0.0211 µM) [%] | viability (Nalm-6 [4]; run: 2, 0.0632 µM) [%] | viability (Nalm-6 [4]; run: 2, 0.19 µM) [%] | viability (Nalm-6 [4]; run: 2, 0.569 µM) [%] | viability (Nalm-6 [4]; run: 2, 1.71 µM) [%] | viability (Nalm-6 [4]; run: 2, 5.12 µM) [%] | viability (Nalm-6 [4]; run: 2, 15.4 µM) [%] | viability (Nalm-6 [4]; run: 2, 46.1 µM) [%]
1 | C[C@@H](NC1=CC=CC=C1C(O)=O)C/2=C/C(=C\N3C(=O)/C=C(\N=C23)N4CCOCC4)C [AZD-6482] | -4.68 | -5.23 | -4.83 | 104 | 97.7 | 111 | 105 | 102 | 101 | 97.9 | 101 | 93.4 | 90.2 | 66.1 | 121 | 120 | 120 | 117 | 121 | 111 | 97.9 | 89.8 | 71.8 | 66.3 | 39.4 | 112 | 106 | 110 | 110 | 110 | 104 | 96.2 | 93.5 | 79.5 | 73.5 | 43.8
2 | NC(=O)Nc1cc(-c2cccc(F)c2)sc1C(=O)N[C@H]1CCCNC1 [AZD-7762] | -6.23 | -7.08 | -6.98 | 103 | 105 | 93.5 | 88.6 | 91.1 | 73.3 | 54.9 | 32.2 | 14.6 | 13.6 | 8.96 | 104 | 112 | 103 | 98.5 | 65.8 | 29.2 | 10.8 | 6.56 | 5.86 | 6.26 | -0.133 | 107 | 106 | 98.4 | 101 | 70.2 | 33.9 | 9.31 | 5.38 | 6.4 | 5.01 | -0.703
3 | COc1ccc(-c2ccc3c(N4CCOC[C@@H]4C)nc(N4CCOC[C@@H]4C)nc3n2)cc1CO [AZD-8055] | -7.98 | -5.13 | -6.33 | 75.4 | 71.8 | 62.5 | 54.4 | 44.3 | 41.7 | 42.2 | 43.4 | 41.5 | 45.1 | 43.5 | 82.9 | 75.2 | 77.2 | 62.2 | 60.2 | 58.7 | 57.3 | 56 | 52.9 | 44.8 | 25.2 | 92.1 | 90.3 | 75.5 | 64.1 | 70.9 | 59.7 | 51.1 | 51.9 | 47.6 | 40.2 | 19.3
4 | CN(C)C/C=C/C(=O)Nc1cc2c(Nc3ccc(F)c(Cl)c3)ncnc2cc1O[C@H]1CCOC1 [Afatinib] | -5.18 | -5.93 | -5.83 | 94.8 | 91 | 92.3 | 91.4 | 92.1 | 85.4 | 86.1 | 61.4 | 45.8 | 28.2 | -0.992 | 92.4 | 96.6 | 94.6 | 98.9 | 82.9 | 73.2 | 57.2 | 34.7 | 22.3 | 2.36 | -1.04 | 104 | 97.3 | 94.3 | 97.3 | 93.3 | 83.8 | 69 | 52.9 | 3.54 | 2.27 | -0.498
